Test results published in US20250084169A1 (published 2025).

T1: recombinant cynomolgus monkey CD19 (cynomolgus monkey, UniProt A0A2K5W8L9 20-292)
T1 sequence: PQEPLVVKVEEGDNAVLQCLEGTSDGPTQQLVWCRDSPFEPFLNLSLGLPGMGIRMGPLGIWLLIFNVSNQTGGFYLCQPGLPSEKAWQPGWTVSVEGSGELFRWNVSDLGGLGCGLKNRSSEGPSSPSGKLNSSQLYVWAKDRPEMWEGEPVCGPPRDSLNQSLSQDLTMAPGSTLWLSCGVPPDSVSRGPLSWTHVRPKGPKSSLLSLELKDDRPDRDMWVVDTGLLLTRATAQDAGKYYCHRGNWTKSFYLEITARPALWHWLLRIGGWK

T2: recombinant human CD19 (human, UniProt P15391 20-291)
T2 sequence (looked up): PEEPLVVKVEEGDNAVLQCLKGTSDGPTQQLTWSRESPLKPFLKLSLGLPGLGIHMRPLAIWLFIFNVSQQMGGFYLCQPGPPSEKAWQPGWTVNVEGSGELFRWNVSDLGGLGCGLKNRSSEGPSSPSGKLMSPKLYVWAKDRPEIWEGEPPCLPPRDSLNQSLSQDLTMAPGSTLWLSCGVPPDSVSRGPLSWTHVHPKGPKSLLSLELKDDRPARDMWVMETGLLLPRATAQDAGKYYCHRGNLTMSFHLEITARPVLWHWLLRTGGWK

T3: cynomolgus monkey CD19 on cells (cynomolgus monkey, UniProt A0A2K5W8L9 20-557)
T3 sequence: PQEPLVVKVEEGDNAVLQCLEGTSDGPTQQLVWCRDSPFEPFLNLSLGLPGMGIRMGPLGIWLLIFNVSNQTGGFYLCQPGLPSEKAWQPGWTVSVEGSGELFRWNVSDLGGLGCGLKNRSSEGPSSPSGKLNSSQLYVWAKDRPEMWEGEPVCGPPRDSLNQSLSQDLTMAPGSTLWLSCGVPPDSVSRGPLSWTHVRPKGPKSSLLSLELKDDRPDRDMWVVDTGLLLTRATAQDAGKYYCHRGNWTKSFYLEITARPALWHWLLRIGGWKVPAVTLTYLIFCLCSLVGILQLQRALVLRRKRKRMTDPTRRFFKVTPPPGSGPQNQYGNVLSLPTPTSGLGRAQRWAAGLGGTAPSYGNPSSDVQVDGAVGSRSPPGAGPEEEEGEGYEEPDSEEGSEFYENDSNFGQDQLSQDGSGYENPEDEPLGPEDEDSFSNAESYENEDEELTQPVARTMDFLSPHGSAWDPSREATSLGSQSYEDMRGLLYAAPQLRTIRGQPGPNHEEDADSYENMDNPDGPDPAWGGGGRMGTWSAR

T4: human CD19 on cells (human, UniProt P15391 20-556)
T4 sequence (looked up): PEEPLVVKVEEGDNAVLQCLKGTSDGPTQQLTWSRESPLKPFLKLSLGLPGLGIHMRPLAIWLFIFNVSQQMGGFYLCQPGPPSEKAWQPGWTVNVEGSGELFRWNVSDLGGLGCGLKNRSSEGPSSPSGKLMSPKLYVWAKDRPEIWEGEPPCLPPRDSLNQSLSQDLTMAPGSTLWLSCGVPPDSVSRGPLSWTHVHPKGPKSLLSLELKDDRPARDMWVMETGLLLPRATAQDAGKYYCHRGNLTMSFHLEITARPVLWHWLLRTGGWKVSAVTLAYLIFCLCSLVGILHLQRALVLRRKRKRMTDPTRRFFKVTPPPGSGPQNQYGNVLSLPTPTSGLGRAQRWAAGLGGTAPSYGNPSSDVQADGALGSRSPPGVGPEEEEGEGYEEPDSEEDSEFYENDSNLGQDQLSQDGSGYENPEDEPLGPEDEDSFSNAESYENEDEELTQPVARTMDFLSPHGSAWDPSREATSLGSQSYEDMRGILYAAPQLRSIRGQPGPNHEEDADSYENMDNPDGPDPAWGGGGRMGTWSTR

B1: FMC59 (huFMC63) (antibody, human IgG1, kappa)
heavy: QVQLVQSGGGVVQPGRSLRLSCAASGVSLPDYGVSWVRQAPGKGLEWVAVIWGSETTYYNSALKSRFTISRDNSKNTLYLQMSSLRAEDTAVYYCAKHYYYGGSFAMDYWGQGTLVTVSS[in this place human IgG1 constant region]
light: DIQMTQSPSSLSASVGDRVTITCRASQDISKYLNWYQQKPGKAIKLLIYHTSRLHSGVPSRFSGSGSGTDFTLTISSLQPEDFATYYCQQGATLPYTFGPGTKLEIKRTVAAPSVFIFPPSDEQLKSGTASVVCLLNNFYPREAKVQWKVDNALQSGNSQESVTEQDSKDSTYSLSSTLTLSKADYEKHKVYACEVTHQGLSSPVTKSFNRGEC
B2: FMC59-S239D/I332E (huFMC63-S239D/I332E) (antibody, human IgG1, kappa)
heavy: QVQLVQSGGGVVQPGRSLRLSCAASGVSLPDYGVSWVRQAPGKGLEWVAVIWGSETTYYNSALKSRFTISRDNSKNTLYLQMSSLRAEDTAVYYCAKHYYYGGSFAMDYWGQGTLVTVSS[in this place human IgG1 constant region with changes]
light: B1 light

How the values were obtained:
[1] = biological target: T1, recombinant cynomolgus monkey CD19
recombinant human CD19 = biological target: T2, recombinant human CD19
[2] = biological target: T3, cynomolgus monkey CD19 on cells
human CD19 on cells = biological target: T4, human CD19 on cells

Row | Binder | Kd [1] | Kd (recombinant human CD19) | EC50 [2] | EC50 (human CD19 on cells)
1 | B1 | 470 nM | 2.7 nM |  | 
2 | B2 |  |  | 37 nM | 1.1 nM
